Source: PubChem BioAssay AID1458 (National Center for Advancing Translational Sciences (NCATS), 2008)
Values joined by “and” are separate entries in the source; they are usually repeats but may differ in a detail not shown here. Equal values may be shown once. The whole screen tested about 210,000 compounds, of which about 5,900 (2.8%) were called active. Inconclusive results, whose numbers are uncertain, are shown with a selection of clear calls. Calls come from the whole dose curve; as a rule, active = well fitted activation curve with a large enough effect; inconclusive = small, poorly fitted or top-dose-only effect; inactive = no such curve, though single readings can be large or run the other way. Potencies of inconclusive entries are doubtful fits and often do not repeat.

Experiment: qHTS Assay for Enhancers of SMN2 Splice Variant Expression; note: nearly all actives have a fitted effect of over 55% in size; for activity change, positive = activation: % of control where 0% means no effect
Conditions: HEK293 SMN2-luciferase splicing reporter, luminescence, 30-36 h; activity change, positive = activation: at 46.1 µM (top of the series)
Procedure, shortened: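 qHTS luciferase splicing reporter: luminescence rises when SMN2 exon 7 is included in transfected HEK293 cells. Compound exposure lasted 30-36 h at 37C, with 4.5 mM final sodium butyrate as control, followed by a ONE-Glo read.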
Potency is the fitted concentration of half-maximal effect; tags give direction and shape of the fitted curve.

SMILES | Potency | activity change, positive = activation
COc1cc(C2CC(c3cccnc3)=NN2c2ccc(F)cc2)cc(OC)c1OC (stereo not given) | inconclusive: 11.2 µM [activator, partial curve] | 
C=CCNCc1cccn1-c1sc2c(c1C#N)CCCC2 | inconclusive: 4.47 µM [activator, full curve, poor fit] | 
CCn1cc(SCC(=O)N2CCOCC2)c2ccccc21 | inconclusive: 31.6 µM [activator, single point] | 
CCOc1cc(C(c2c(C)[nH][nH]c2=O)c2c(C)[nH][nH]c2=O)ccc1O | inconclusive: 6.31 µM [activator, partial curve, poor fit] | 
C[N+]1(C)C2CCC1CC(OC(=O)C(O)c1ccccc1)C2 (stereo not given) | inactive | 
Cc1ccc(NC(=O)CN2CCN(S(=O)(=O)c3cccs3)CC2)cc1S(=O)(=O)N(C)C | inactive | 
O=C(NCCO)c1ccc2c(c1)S(=O)(=O)c1ccccc1C2=O | inconclusive: 0.0028 µM [activator, full curve, poor fit] | 
COC(=O)c1ccccc1NC(=O)CSc1nc2ccccc2c(=O)[nH]1 | inconclusive: 17.8 µM [activator, partial curve, poor fit] | 
Cc1ccc(NC(=O)Cn2cnc3sc(C(=O)NCCN(C)C)c(C)c3c2=O)cc1Cl | inconclusive: 20 µM [activator, single point] | 
COc1ccc(-n2ncc3c(NCc4ccco4)ncnc32)cc1 | inconclusive: 15.8 µM [activator, single point] | 
COc1ccc(/C=N/NC(=O)C2COc3ccccc3O2)cc1OC (stereo not given) | inactive | 
COc1ccccc1C(=O)Nc1nc(-c2cccs2)c(NC(C)=O)s1 | inconclusive: 11.2 µM [activator, partial curve] | 
COc1cc(N=CC2=C(O)c3ccccc3C2=O)cc(OC)c1 | inconclusive: 35.5 µM [activator, partial curve, poor fit] | 
CCOC(=O)c1c(C)[nH]c(C(=O)CSc2ccc(Cl)cc2)c1C | active: 11.2 µM | 
CC(=O)N1CCN(Cc2nc3cc(NS(C)(=O)=O)ccc3n2C)CC1 | inconclusive: 1 µM [activator, full curve] | 
CC(=O)N1CCN(C2=NC(=O)C(=C3CCCCC3)S2)CC1 | inconclusive: 35.5 µM [activator, single point] | 
Nn1c(SCCOc2ccccc2)nnc1-c1cccnc1 | inconclusive: 35.5 µM [activator, single point] | 
O=C(Nc1cccc(O)c1)c1noc2c1CCc1ccccc1-2 | inconclusive: 35.5 µM [activator, single point] and inconclusive: 25.1 µM [activator, single point] | 
O=C(OCc1ccccc1F)c1ccc2c(c1)OCCO2 | inconclusive: 35.5 µM [activator, single point] | 
S=c1[nH]nc(-c2ccccn2)n1/N=C/c1ccc(-c2ccccc2Cl)o1 |  | inconclusive: 290% [activator]
CCCCCCC(=O)c1c(C)[nH]c(C(=O)OCC)c1C | inconclusive: 0.0079 µM [activator, full curve, poor fit] | 
O=C(CSc1nnc(-c2ccncc2)o1)Nc1ccccc1Cl | inconclusive: 15.8 µM [activator, single point] | 
COC(=O)C1=C(C)NC(C)=C(C(=O)OC)C1C1CC=CCC1 (stereo not given) | inconclusive: 35.5 µM [activator, single point] | 

SMILES | Potency | activity change, positive = activation
Cc1ccc(C)c(NC(=O)c2ccc3ccccc3n2)c1 | active: 14.1 µM | 
CN1CCN(C(=S)NC(=O)/C=C/c2cccc3ccccc23)CC1 | inconclusive: 2 µM [activator, partial curve] | 
CCOc1ccc(/C=C/C(=O)Nc2cccc(C(C)=O)c2)cc1 | inconclusive: 15.8 µM [activator, partial curve] | 
CCc1cc(C(=O)NCc2ccccc2)no1 | inactive | 
CCOC(=O)C(O)(NC(=O)c1cccnc1)C(F)(F)F (stereo not given) | inconclusive: 12.6 µM [activator, partial curve, poor fit] | 
CCOC(=O)C1CCCN(CCC(=O)Nc2cccc(F)c2)C1 (stereo not given) | inactive | 
CCc1cccc(NC(=O)Cn2nc(-c3cc(C)ccc3C)ccc2=O)c1 | inactive | 
COc1ccc(C(=O)NC(=S)Nc2cccnc2)cc1OC | inactive | 
Cc1nc2sc(C(c3ccco3)N3CCN(c4ccccc4)CC3)c(O)n2n1 (stereo not given) | inconclusive: 10 µM [activator, partial curve] | 
CCc1ccc(Nc2cnn(-c3nc4ccccc4s3)c(=O)c2Cl)cc1 | inconclusive: 10 µM [activator, partial curve, poor fit] | 
Cc1ccc(NC(=O)CCn2nnc3ccccc32)cc1 | inconclusive: 11.2 µM [activator, partial curve] | 
CCN=C1SC(CC(=O)Nc2ccccc2OCC)C(=O)N1CC (stereo not given) | inconclusive: 31.6 µM [activator, single point] | 
COc1ccc(-c2nc3ccccc3o2)cc1NC(=O)COc1ccc(C(C)(C)C)cc1 | active: 5.01 µM | 
CCCCOC(=O)c1cccc(NC(=O)c2cc3ccccc3o2)c1 | active: 3.55 µM | 
Cc1ccsc1/C=N/Nc1nc(Cl)c(Cl)cc1Cl | inconclusive: 10 µM [activator, single point] | 
CCc1ccc2oc(C(=O)Nc3sc4c(c3C(=O)NC)CCCC4)cc(=O)c2c1 | inactive | 
Cc1ccc(NC(=O)c2ccc(N3CCOCC3)c([N+](=O)[O-])c2)cc1S(=O)(=O)N1CCOCC1 | inactive | 
NC(=O)c1ccc(Br)c(S(=O)(=O)N2CCCCC2)c1 | inconclusive: 0.0089 µM [activator, full curve, poor fit] | 
CCC(=O)/C(=C(/O)c1ccccc1)c1nc2ccccc2[nH]1 | inconclusive: 35.5 µM [activator, single point] | 
O=C(Nc1ccon1)c1csc2c1CCCC2 | inactive | 
O=C(Nc1ccc(C(=O)N2CCOCC2)cc1)Nc1cccc(Cl)c1 | inconclusive: 14.1 µM [activator, single point] | 
CN(C)/C=C/C=C1C(=O)CCCC1=O | inconclusive: 11.2 µM [activator, single point] | 
